# In PubChem BioAssay AID504832 (National Center for Advancing Translational Sciences (NCATS), 2011):
# In all, about 310,000 compounds went through this assay and about 18,000 (5.8%) were called active. The shares of active, inactive and inconclusive entries below differ from those in the screen. The call rests on the fitted dose curve; in most records, active means well fitted inhibition curve with a large enough effect; inconclusive means small, poorly fitted or top-dose-only effect, or another doubt; inactive means no such curve, though single readings can be large or run the other way. Potencies of inconclusive entries are left out as doubtful fits.
# Experiment: Primary qHTS for delayed death inhibitors of the malarial parasite plastid, 48 hour incubation
# Details: P. falciparum luciferase growth in erythrocytes; series mostly up to 28.7 µM
# Method in brief: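 Compounds are pin-transferred into medium, infected erythrocytes (2% hematocrit, 0.1% parasitemia final) are added, and plates sit one parasite generation at 37 C in 5% CO2. Detection reagent is then added and luminescence measured.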
# Potency means the concentration at half of the fitted maximal effect; tags describe the fitted curve by direction and shape.
row,Compound,Potency
1,O=C(COC(=O)c1cccc(S(=O)(=O)N2CCCCCC2)c1)Nc1ccccc1,"inconclusive [inhibitor, partial curve, poor fit]"
2,CCOC(=O)C1=C(C)N(C)C(C)=C(C(=O)OCC)C1c1cccnc1,"inconclusive [inhibitor, partial curve, poor fit]"
3,O=C(NCCCn1ccnc1)c1ccccc1Br,inactive
4,CCN(CC)CCn1c(=S)[nH]c2ccc(Cl)cc2c1=O,active: 11.7 µM
5,CC(=O)NC1=NN(C(C)=O)C2(S1)C(=O)N(C(C)=O)c1ccc(C)cc12 (configuration not stated),inactive
6,CC(C)(C)NC(=O)C(c1ccncc1)N(C(=O)Cn1nnc(-c2cccs2)n1)C1CCCCC1 (configuration not stated),active: 9.28 µM
7,COc1cc2c3c(c1)c(N=NC(N)=S)c(O)n3C(C)(C)C=C2C,active: 10.4 µM
8,O=C(NCC(c1ccco1)N1CCN(c2ccc(F)cc2)CC1)C(=O)NC1CCCC1 (configuration not stated),"inconclusive [inhibitor, single point]"
9,Oc1ccc(C2C(c3ccccc3)=NN=C(c3ccc(Cl)cc3)N2O)c(O)c1 (configuration not stated),"inconclusive [inhibitor, full curve]"
10,O=C1CCN(S(=O)(=O)c2ccccc2)CCN1CCOCc1ccc(Cl)cc1,inactive
11,Cc1nc2ccccc2n1C(=O)N1CCOCC1,"inconclusive [inhibitor, single point]"
12,CCOC(=O)c1c(C)[nH]c(C)c1C(=O)COC(=O)c1cc(OC)cc(OC)c1,"inconclusive [inhibitor, single point]"
13,COc1cccc(NC(=O)C2CCN(S(=O)(=O)c3ccc4[nH]c(=O)ccc4c3)CC2)c1,"inconclusive [inhibitor, partial curve, poor fit]"
14,CN1CCN(C(=O)C2=C[C@@H](c3ccc(C(F)(F)F)cc3)C[C@@H](OCCCCO)O2)CC1,"inconclusive [inhibitor, full curve, poor fit]"
15,CN(C)CCCNC(=S)Nc1ccc(Oc2ccccc2)cc1,inactive
16,CCOC(=O)C1=C(c2ccccc2)NC(=O)N(C(C)=O)C1c1cccc([N+](=O)[O-])c1 (configuration not stated),"inconclusive [inhibitor, partial curve, poor fit]"
17,CC(C)c1nnc(NC(=O)C2CCN(C(=O)Nc3ccccc3)CC2)s1,inactive
18,O=[N+]([O-])c1ccc(-c2nnc(-c3ccccc3)c(N3CCOCC3)n2)cc1,"inconclusive [inhibitor, partial curve, poor fit]"
19,Cc1cc(SCC(=O)Nc2c(C)n(C)n(-c3ccccc3)c2=O)nc2ccccc12,inactive
20,COc1ccccc1/C=C/C=N/NC(=O)c1cc(-c2ccco2)[nH]n1,"inconclusive [inhibitor, partial curve, poor fit]"
21,CCN(C(=O)CN1C(=O)S/C(=C\c2ccc(F)cc2)C1=O)C1CCS(=O)(=O)C1 (configuration not stated),"inconclusive [inhibitor, partial curve, poor fit]"

row,Compound,Potency
1,O=C(CSc1ccc(-c2ccco2)nn1)NC1CCCCC1,inactive
2,COc1ccccc1N1CCN(CCN(C(=O)C2CCCCC2)c2ccccn2)CC1,"inconclusive [inhibitor, single point]"
3,Cc1c(C(=O)N2CCOCC2)sc2ncn(CC(=O)N3CCC(C)CC3)c(=O)c12,inactive
4,COc1cc2c(cc1OC)C(C)N(C(=O)c1cc3n(n1)C(C(F)(F)F)CC(c1ccco1)N3)CC2 (configuration not stated),active: 6.57 µM
5,CC(=O)Nc1ccc(Nc2c([N+](=O)[O-])c(=O)n(-c3ccccc3)c3ccccc23)cc1,"inconclusive [inhibitor, partial curve, poor fit]"
6,O=C(C1CCN(S(=O)(=O)c2cccc3nsnc23)CC1)N1CCn2c1nc1ccccc12,"inconclusive [inhibitor, partial curve, poor fit]"
7,CCOC(=O)c1ccc(NC(=O)c2ccccc2N(C)S(=O)(=O)c2ccccc2)cc1,"inconclusive [inhibitor, partial curve]"
8,Cc1cc(NCc2ccccc2)nc(-c2ccccc2O)n1,"inconclusive [inhibitor, single point]"
9,O=C(NCC(c1ccc(F)cc1)N1CCOCC1)c1cccnc1Sc1ccccc1Cl (configuration not stated),"inconclusive [inhibitor, single point]"
10,O=c1[nH]c(CN2CCN(S(=O)(=O)/C=C/c3ccccc3)CC2)nc2ccccc12,"inconclusive [inhibitor, single point]"
11,Cc1cc2cc(CNS(=O)(=O)c3ccc4ccccc4c3)ccc2n1C,"inconclusive [inhibitor, single point]"
12,N#CCCN(Cc1ccccc1)C(=O)c1cccs1,"inconclusive [inhibitor, full curve, poor fit]"
13,O=C(Nc1cccc(F)c1)c1ccc(Br)o1,inactive
14,COC(=O)c1c(C)oc(C)c1S(=O)(=O)N(Cc1ccccc1)C(C)C,"inconclusive [inhibitor, partial curve, poor fit]"
15,CCc1nccn1CCC(=O)N1CCCC(Nc2ccc(C(C)C)cc2)C1 (configuration not stated),inactive
16,Cc1ccccc1Nc1nc(N)nc(COC(=O)c2cccc(S(=O)(=O)NCc3ccccc3)c2)n1,"inconclusive [inhibitor, single point]"
17,CC(C)c1cc(C(=O)OCC(=O)N2CCN(C(=O)c3ccco3)CC2)c(O)c(C(C)C)c1,inactive
18,C#CCNC(=O)C1CCN(c2ccc(S(=O)(=O)N3CCOCC3)cc2Cl)CC1,"inconclusive [inhibitor, single point]"
19,C/C(=N\NC(=O)COc1cc(C)cc(C)c1)c1ccc(N2CCOCC2)cc1,"inconclusive [inhibitor, full curve, poor fit]"
20,CCOC(=O)N1CCN(C(=O)c2c[nH]c3ccc(S(=O)(=O)N(C)c4cccc(C)c4)cc3c2=O)CC1,inactive
21,CCOc1ccccc1-c1cc(C(=O)N/N=C(\C)c2cccnc2)c2ccccc2n1,"inconclusive [inhibitor, single point]"
